# Data reported in the supplement of paper PMC8728848.
# This is one part of the list.
# What was measured:
# Assay in all cases: glycan array binding signal (z-score within array); higher = stronger binding
# Conditions in all cases: glycan notation: IUPAC condensed, linker removed
# [1] = biological target: Gal(b1-4)GlcNAc(b1-3)Gal(b1-4)GlcNAc(b1-3)Gal(b1-4)GlcNAc(b1-3)Gal(b1-4)GlcNAc(b1-2)Man(a1-3)[Gal(b1-4)GlcNAc(b1-3)Gal(b1-4)GlcNAc(b1-3)Gal(b1-4)GlcNAc(b1-3)Gal(b1-4)GlcNAc(b1-2)Man(a1-6)]Man(b1-4)GlcNAc(b1-4)GlcNAc
# Summary of the method: (§1)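 Glycan array data were curated from 3228 arrays in the Consortium for Functional Glycomics database and kept only where the protein sequence was available. Glycan names were converted to IUPAC-condensed notation, and columns mapping to the same glycan were averaged. The binding signal is a within-array Z-score, averaged across arrays of the same protein sequence at different concentrations or buffers and across linkers. Negative Z-scores can be read as non-binding.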
# [2] = biological target: Gal(b1-4)GlcNAc(b1-3)Gal(b1-4)GlcNAc(b1-3)Gal(b1-4)GlcNAc(b1-3)Gal(b1-4)GlcNAc(b1-2)Man(a1-3)[Gal(b1-4)GlcNAc(b1-3)Gal(b1-4)GlcNAc(b1-3)Gal(b1-4)GlcNAc(b1-3)Gal(b1-4)GlcNAc(b1-2)Man(a1-6)]Man(b1-4)GlcNAc(b1-4)[Fuc(a1-6)]GlcNAc
# Summary of the method: as §1
# [3] = biological target: Gal(b1-4)GlcNAc(b1-3)Gal(b1-4)GlcNAc(b1-3)Gal(b1-4)GlcNAc(b1-3)Gal(b1-4)GlcNAc(b1-2)[Gal(b1-4)GlcNAc(b1-3)Gal(b1-4)GlcNAc(b1-3)Gal(b1-4)GlcNAc(b1-3)Gal(b1-4)GlcNAc(b1-6)]Man(a1-6)[Gal(b1-4)GlcNAc(b1-3)Gal(b1-4)GlcNAc(b1-3)Gal(b1-4)GlcNAc(b1-3)Gal(b1-4)GlcNAc(b1-2)Man(a1-3)]Man(b1-4)GlcNAc(b1-4)[Fuc(a1-6)]GlcNAc
# Summary of the method: as §1
# [4] = biological target: Gal(b1-4)GlcNAc(b1-3)Gal(b1-4)GlcNAc(b1-3)Gal(b1-4)GlcNAc(b1-3)Gal(b1-4)GlcNAc(b1-3)Gal(b1-4)GlcNAc(b1-2)Man(a1-3)[Gal(b1-4)GlcNAc(b1-3)Gal(b1-4)GlcNAc(b1-3)Gal(b1-4)GlcNAc(b1-3)Gal(b1-4)GlcNAc(b1-3)Gal(b1-4)GlcNAc(b1-2)Man(a1-6)]Man(b1-4)GlcNAc(b1-4)GlcNAc
# Summary of the method: as §1
# [5] = biological target: Gal(b1-4)GlcNAc(b1-3)Gal(b1-4)GlcNAc(b1-3)Gal(b1-4)GlcNAc(b1-3)Gal(b1-4)GlcNAc(b1-3)Gal(b1-4)GlcNAc(b1-2)Man(a1-3)[Gal(b1-4)GlcNAc(b1-3)Gal(b1-4)GlcNAc(b1-3)Gal(b1-4)GlcNAc(b1-3)Gal(b1-4)GlcNAc(b1-3)Gal(b1-4)GlcNAc(b1-2)Man(a1-6)]Man(b1-4)GlcNAc(b1-4)[Fuc(a1-6)]GlcNAc
# Summary of the method: as §1
# [6] = biological target: Gal(b1-4)GlcNAc(b1-3)Gal(b1-4)GlcNAc(b1-3)Gal(b1-4)GlcNAc(b1-3)Gal(b1-4)GlcNAc(b1-3)Gal(b1-4)GlcNAc(b1-2)[Gal(b1-4)GlcNAc(b1-3)Gal(b1-4)GlcNAc(b1-3)Gal(b1-4)GlcNAc(b1-3)Gal(b1-4)GlcNAc(b1-3)Gal(b1-4)GlcNAc(b1-6)]Man(a1-6)[Gal(b1-4)GlcNAc(b1-3)Gal(b1-4)GlcNAc(b1-3)Gal(b1-4)GlcNAc(b1-3)Gal(b1-4)GlcNAc(b1-3)Gal(b1-4)GlcNAc(b1-2)Man(a1-3)]Man(b1-4)GlcNAc(b1-4)[Fuc(a1-6)]GlcNAc
# Summary of the method: as §1
# [7] = biological target: Gal(b1-4)GlcNAc(b1-3)Gal(b1-4)GlcNAc(b1-3)Gal(b1-4)GlcNAc(b1-3)Gal(b1-4)GlcNAc(b1-3)Gal(b1-4)GlcNAc(b1-3)Gal(b1-4)GlcNAc(b1-2)Man(a1-3)[Gal(b1-4)GlcNAc(b1-3)Gal(b1-4)GlcNAc(b1-3)Gal(b1-4)GlcNAc(b1-3)Gal(b1-4)GlcNAc(b1-3)Gal(b1-4)GlcNAc(b1-3)Gal(b1-4)GlcNAc(b1-2)Man(a1-6)]Man(b1-4)GlcNAc(b1-4)GlcNAc
# Summary of the method: as §1
# [8] = biological target: Gal(b1-4)GlcNAc(b1-3)Gal(b1-4)GlcNAc(b1-3)GalNAc
# Summary of the method: as §1
# [9] = biological target: Gal(b1-4)GlcNAc(b1-3)Gal(b1-4)GlcNAc(b1-3)[Gal(b1-4)GlcNAc(b1-3)Gal(b1-4)GlcNAc(b1-6)]GalNAc
# Summary of the method: as §1
# [10] = biological target: Gal(b1-4)GlcNAc(b1-3)Gal(b1-4)GlcNAc(b1-6)[Gal(b1-3)]GalNAc
# Summary of the method: as §1
# [11] = biological target: Gal(b1-4)GlcNAc(b1-3)Gal(b1-4)[Fuc(a1-3)]GlcNAc(b1-3)Gal(b1-4)[Fuc(a1-3)]GlcNAc
# Summary of the method: as §1
# [12] = biological target: Gal(b1-4)GlcNAc(b1-3)GalNAc
# Summary of the method: as §1
# [13] = biological target: Gal(b1-4)GlcNAc(b1-3)[Fuc(a1-3)GlcNAc(b1-6)]Gal(b1-4)Glc
# Summary of the method: as §1
# [14] = biological target: Gal(b1-4)GlcNAc(b1-3)[Gal(b1-4)GlcNAc(b1-6)]Gal(b1-4)GlcNAc
# Summary of the method: as §1
# [15] = biological target: Gal(b1-4)GlcNAc(b1-3)[GlcNAc(b1-6)]Gal(b1-4)GlcNAc
# Summary of the method: as §1
# [16] = biological target: Gal(b1-4)GlcNAc(b1-6)Gal(b1-4)GlcNAc
# Summary of the method: as §1
# [17] = biological target: Gal(b1-4)GlcNAc(b1-6)GalNAc
# Summary of the method: as §1
# [18] = biological target: Gal(b1-4)GlcNAc(b1-6)[Gal(b1-3)]GalNAc
# Summary of the method: as §1
# [19] = biological target: Gal(b1-4)GlcNAc(b1-6)[Gal(b1-4)GlcNAc(b1-3)]GalNAc
# Summary of the method: as §1
# [20] = biological target: Gal(b1-4)GlcNAc6P
# Summary of the method: as §1
# [21] = biological target: Gal(b1-6)Gal
# Summary of the method: as §1
# [22] = biological target: Gal3S(b1-3)GalNAc
# Summary of the method: as §1
# [23] = biological target: Gal3S(b1-3)GlcNAc
# Summary of the method: as §1
binder,measurement,setting,value
"CFEM-PPm (Pichia pastoris), F2QPV1 (protein) AVATPPACLLACAAEVVKESSDCDALNNIQCICENEGSAIHACLESTCPDGLSSTALQSFEDVCE",glycan array binding signal (z-score),[1],-0.09
same,glycan array binding signal (z-score),[2],-0.147
same,glycan array binding signal (z-score),[3],0.077
same,glycan array binding signal (z-score),[4],-0.171
same,glycan array binding signal (z-score),[5],-0.233
same,glycan array binding signal (z-score),[6],0.072
same,glycan array binding signal (z-score),[7],-0.026
same,glycan array binding signal (z-score),[8],-0.06
same,glycan array binding signal (z-score),[9],0.033
same,glycan array binding signal (z-score),[10],0.841
same,glycan array binding signal (z-score),[11],-0.23
same,glycan array binding signal (z-score),[12],-0.134
same,glycan array binding signal (z-score),[13],-0.264
same,glycan array binding signal (z-score),[14],-0.181
same,glycan array binding signal (z-score),[15],-0.145
same,glycan array binding signal (z-score),[16],0.25
same,glycan array binding signal (z-score),[17],0.216
same,glycan array binding signal (z-score),[18],1.67
same,glycan array binding signal (z-score),[19],0.029
same,glycan array binding signal (z-score),[20],-0.302
same,glycan array binding signal (z-score),[21],0.461
same,glycan array binding signal (z-score),[22],-0.17
same,glycan array binding signal (z-score),[23],-0.06
